Reference: PubChem BioAssay AID1745853 (National Center for Advancing Translational Sciences (NCATS), 2022)
Several values for one entry are separate records, joined by “and”; a condition that tells them apart may be missing. Equal values may be shown once. The list shows a part of the results. Further columns of the screen follow, without active or inactive calls.

Legend:
Test in all cases: Primary Screen for Target Class Profiling of Small Molecule Inhibitors of Methyltransferases
[1] = molecular target: Glycine N-methyltransferase (Homo sapiens) (UniProt Q14749); conditions: purified enzyme, MTase-Glo SAH luminescence; measured here: GNMT inhibition; at 40 µM; stronger effect = lower value
Summary of the method: (§1)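 Each enzyme was assayed with SAM and its substrate. SAH formation detected by MTase-Glo luminescence; single-point 40 uM screen[…].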

[2] = molecular target: Guanidinoacetate N-methyltransferase (Homo sapiens) (UniProt Q14353); conditions: purified enzyme, MTase-Glo SAH luminescence; measured here: GAMT inhibition; at 40 µM; stronger effect = lower value
Summary of the method: as §1

[3] = molecular target: Histamine N-methyltransferase (Homo sapiens) (UniProt P50135); conditions: purified enzyme, MTase-Glo SAH luminescence; measured here: HNMT inhibition; at 40 µM; stronger effect = lower value
Summary of the method: as §1

[4] = molecular target: Nicotinamide N-methyltransferase (Homo sapiens) (UniProt P40261); conditions: purified enzyme, MTase-Glo SAH luminescence; measured here: NNMT inhibition; at 40 µM; stronger effect = lower value
Summary of the method: as §1

[5] = molecular target: Phenylethanolamine N-methyltransferase (Homo sapiens) (UniProt P11086); conditions: purified enzyme, MTase-Glo SAH luminescence; measured here: PNMT inhibition; at 40 µM; stronger effect = lower value
Summary of the method: as §1
% is scaled to controls: 0 for no effect and ±100 for the full control effect.

Cc1ccc2c(c1)C(N1CCN(C)CC1)=Nc1cccnc1N2
activity change, negative = inhibition [1]: -13.3% | activity change, negative = inhibition [2]: 11.5% | activity change, negative = inhibition [3]: 7.61% | activity change, negative = inhibition [4]: -7.95% | activity change, negative = inhibition [5]: -1.49%

O=C(Cn1c2c(c(=O)n1Cc1ccccc1)CCN(Cc1ccccc1)C2)NCc1cccc(Cl)c1
activity change, negative = inhibition [1]: -7.84% | activity change, negative = inhibition [2]: -8.02% | activity change, negative = inhibition [3]: -5.38% | activity change, negative = inhibition [4]: -17.7% | activity change, negative = inhibition [5]: -9.62%

CCCN1C(=O)c2c(C(=O)NCc3cccc(Br)c3)ncn2CC1(C)C(=O)NC1CCCC1 (stereo not given)
activity change, negative = inhibition [1]: -3.23% | activity change, negative = inhibition [2]: 0% | activity change, negative = inhibition [3]: 2.68% | activity change, negative = inhibition [4]: -5.57% | activity change, negative = inhibition [5]: 4.82%

O=c1[nH]cnc2[nH]ncc12
activity change, negative = inhibition [1]: 2.18% | activity change, negative = inhibition [2]: 9.06% | activity change, negative = inhibition [3]: 8.82% | activity change, negative = inhibition [4]: -4.69% | activity change, negative = inhibition [5]: -1.98%

C=C[C@@]1(C)CCC2C(=CCC3[C@]2(C)CCC[C@@]3(C)C(=O)O)C1 (stereo not given in full)
activity change, negative = inhibition [1]: -0.83% | activity change, negative = inhibition [2]: -17.5% | activity change, negative = inhibition [3]: 3.74% | activity change, negative = inhibition [4]: -37.6% | activity change, negative = inhibition [5]: -10.4%

COc1ccc(CNc2nc3c(-c4ccccc4)nnn3c3ccccc23)cc1
activity change, negative = inhibition [1]: -3.6% | activity change, negative = inhibition [2]: 3.39% | activity change, negative = inhibition [3]: 0.044% | activity change, negative = inhibition [4]: -5.89% | activity change, negative = inhibition [5]: -3.87%

CC1CC(O)/C=C/C(O)C(O)CC(=O)Cc2c(Cl)c(O)cc(O)c2C(=O)O1 (stereo not given)
activity change, negative = inhibition [1]: 4.03% | activity change, negative = inhibition [2]: 3% | activity change, negative = inhibition [3]: 10.4% | activity change, negative = inhibition [4]: -8.03% | activity change, negative = inhibition [5]: -1.53%

CN1CCN(C2CCN(C(=O)Nc3cc(Oc4ccc(NC(=O)C5(C(=O)Nc6ccc(F)cc6)CC5)c(F)c4)ccn3)CC2)CC1
activity change, negative = inhibition [1]: 3.2% | activity change, negative = inhibition [2]: 14% | activity change, negative = inhibition [3]: -4.11% | activity change, negative = inhibition [4]: 1.96% | activity change, negative = inhibition [5]: 4.74%

CC1(C(=O)NC2CCCCCCC2)Cn2c(cc3occc32)C(=O)N1Cc1ccccc1Cl (stereo not given)
activity change, negative = inhibition [1]: -2.43% | activity change, negative = inhibition [2]: 3.39% | activity change, negative = inhibition [3]: -1.05% | activity change, negative = inhibition [4]: -1.45% | activity change, negative = inhibition [5]: 0.027%

COc1cccc(C(=O)NCC2CCCN(Cc3ccccn3)C2)c1OC (stereo not given)
activity change, negative = inhibition [1]: -1.96% | activity change, negative = inhibition [2]: -0.742% | activity change, negative = inhibition [3]: -0.674% | activity change, negative = inhibition [4]: -2.48% | activity change, negative = inhibition [5]: -7.64%

CC(C)Cn1c(=O)c2ccccc2n2c(SCC(=O)Nc3cc(F)ccc3F)nnc12
activity change, negative = inhibition [1]: 3.04% | activity change, negative = inhibition [2]: 5.42% | activity change, negative = inhibition [3]: 11.4% | activity change, negative = inhibition [4]: 3.25% | activity change, negative = inhibition [5]: 4.5%

CCOCCOC(=O)C(C)Oc1ccc2c(=O)c(-c3ccc(OC)c(OC)c3)c(C(F)(F)F)oc2c1 (stereo not given)
activity change, negative = inhibition [1]: -13.5% | activity change, negative = inhibition [2]: 1.85% | activity change, negative = inhibition [3]: 2.85% | activity change, negative = inhibition [4]: 0.694% | activity change, negative = inhibition [5]: -3.18%

COc1ccc(Cl)cc1NC(=O)CSc1nnc2n(CC(C)C)c(=O)c3ccccc3n12
activity change, negative = inhibition [1]: -4.67% | activity change, negative = inhibition [2]: -0.669% | activity change, negative = inhibition [3]: 2.72% | activity change, negative = inhibition [4]: -6.82% | activity change, negative = inhibition [5]: -4.25%

CCc1cc2c(cc3n2CC(C)(C(=O)NC2CCCCCC2)N(Cc2ccc(Cl)cc2)C3=O)s1 (stereo not given)
activity change, negative = inhibition [1]: 4.52% | activity change, negative = inhibition [2]: 1.38% | activity change, negative = inhibition [3]: 8.18% | activity change, negative = inhibition [4]: 6.5% | activity change, negative = inhibition [5]: 4.64%

O=C1CCC2(CNC(=O)c3cccnc3)CCCC=C2N1 (stereo not given)
activity change, negative = inhibition [1]: -5.02% | activity change, negative = inhibition [2]: -2.38% | activity change, negative = inhibition [3]: -0.714% | activity change, negative = inhibition [4]: 20.2% | activity change, negative = inhibition [5]: 4.75%

CCCn1c(=O)c2ccc(C(=O)NC3CCCCC3)cc2n2c(=O)n(CC(=O)Nc3ccccc3)nc12
activity change, negative = inhibition [1]: 7.49% | activity change, negative = inhibition [2]: 1.4% | activity change, negative = inhibition [3]: 10.7% | activity change, negative = inhibition [4]: 2.8% | activity change, negative = inhibition [5]: 6.27%

C=Cc1ccc(Cn2nc3n(Cc4ccccc4)c(=O)c4ccc(C(=O)NC5CCCC5)cc4n3c2=O)cc1
activity change, negative = inhibition [1]: -2.16% | activity change, negative = inhibition [2]: -0.212% | activity change, negative = inhibition [3]: 1.72% | activity change, negative = inhibition [4]: -2.45% | activity change, negative = inhibition [5]: -5.08%

Cc1cccc(C(=O)NCN2CCN(c3ccccc3C#N)CC2)c1
activity change, negative = inhibition [1]: 5.91% | activity change, negative = inhibition [2]: 12.6% | activity change, negative = inhibition [3]: 12.8% | activity change, negative = inhibition [4]: -3.49% | activity change, negative = inhibition [5]: 0.928%

COc1ccccc1CNC(=O)C1(C)Cn2c(cc3ccccc32)C(=O)N1Cc1ccccc1F (stereo not given)
activity change, negative = inhibition [1]: 5.82% | activity change, negative = inhibition [2]: 0% | activity change, negative = inhibition [3]: 9.48% | activity change, negative = inhibition [4]: 12% | activity change, negative = inhibition [5]: 3.04%

CCOc1ccccc1NC(=O)c1ncn2c1C(=O)N(C1CC1)C(C)(C(=O)NCc1ccc(OC)cc1)C2 (stereo not given)
activity change, negative = inhibition [1]: -2.79% | activity change, negative = inhibition [2]: 0% | activity change, negative = inhibition [3]: 1.12% | activity change, negative = inhibition [4]: 0.011% | activity change, negative = inhibition [5]: 2.15%

NC1(C(=O)O)CCc2cc(C(=O)O)ccc21 (stereo not given)
activity change, negative = inhibition [1]: -21% | activity change, negative = inhibition [2]: 10.3% | activity change, negative = inhibition [3]: 2.73% | activity change, negative = inhibition [4]: -1.51% | activity change, negative = inhibition [5]: 0.406%

NC(CO)C(=O)NNCc1ccc(O)c(O)c1O (stereo not given)
activity change, negative = inhibition [1]: -31.4% | activity change, negative = inhibition [2]: -2.19% | activity change, negative = inhibition [3]: -3.67% | activity change, negative = inhibition [4]: -13.6% | activity change, negative = inhibition [5]: -0.862%

COc1ccccc1CNc1nc2c(-c3cccc(C)c3)nnn2c2ccccc12
activity change, negative = inhibition [1]: -3.21% | activity change, negative = inhibition [2]: 0.192% | activity change, negative = inhibition [3]: 2.97% | activity change, negative = inhibition [4]: -2.18% | activity change, negative = inhibition [5]: -1.73%

Cc1ccccc1C(=O)N1CCCN(c2ccc3nnc(-c4ccccc4)n3n2)CC1
activity change, negative = inhibition [1]: -10% | activity change, negative = inhibition [2]: -6.66% | activity change, negative = inhibition [3]: -13% | activity change, negative = inhibition [4]: -16.8% | activity change, negative = inhibition [5]: -0.895%

c1ccc(-c2nc(C3CCOCC3)no2)c(OC2CCN(C3CCCC3)C2)c1 (stereo not given)
activity change, negative = inhibition [1]: -7.03% | activity change, negative = inhibition [2]: -1.72% | activity change, negative = inhibition [3]: -20.1% | activity change, negative = inhibition [4]: -38% | activity change, negative = inhibition [5]: -3.91%

Oc1ccc(CNc2ccccc2F)c2cccnc12
activity change, negative = inhibition [1]: -67.6% and 2.65% | activity change, negative = inhibition [2]: 0.475% | activity change, negative = inhibition [3]: -14.9% and 0.816% | activity change, negative = inhibition [4]: -5.34% and -20.3% | activity change, negative = inhibition [5]: -111% and -8.26%

O=C(NCc1ccc(F)cc1)C(=O)c1c[nH]c2ccccc12
activity change, negative = inhibition [1]: -2.81% | activity change, negative = inhibition [2]: -9.05% | activity change, negative = inhibition [3]: -4.13% | activity change, negative = inhibition [4]: -17.8% | activity change, negative = inhibition [5]: -9.67%

CC(C)CC(=O)N1CCN(c2nnc3ccc(C(F)(F)F)cn23)CC1
activity change, negative = inhibition [1]: -3.11% | activity change, negative = inhibition [2]: 0.097% | activity change, negative = inhibition [3]: 0.91% | activity change, negative = inhibition [4]: -4.41% | activity change, negative = inhibition [5]: -14.2%

COc1ccc(Oc2c(Cl)cnn(-c3cc(C)cc(C)c3)c2=O)cc1
activity change, negative = inhibition [1]: -8.28% | activity change, negative = inhibition [2]: 1.68% | activity change, negative = inhibition [3]: 1.56% | activity change, negative = inhibition [4]: -23.2% | activity change, negative = inhibition [5]: -14.1%

CC1(C)COC(=O)[C@@H]1O[C@@H]1O[C@H](CO)[C@@H](O)[C@H](O)[C@H]1O
activity change, negative = inhibition [1]: 1.87% | activity change, negative = inhibition [2]: -2.05% | activity change, negative = inhibition [3]: 7.83% | activity change, negative = inhibition [4]: -17.7% | activity change, negative = inhibition [5]: 2.4%
